Our source for the growth values is the supplement of paper PMC10986608.

The list shows a part of the results. Single values are uncertain, as repeats are few or missing.

The experiment has as its system Candida albicans DPL-15. Description: growth (OD600) after compound treatment (apparently relative to screen median) (relative growth (fraction; screen median 1.02)); DPL-15 is a caspofungin-resistant clinical isolate; higher = more fungal growth (less antifungal activity). The following applies: 25 µM; RPMI 1640; 48 h; 30 °C.
As for `CC(C)n1cc(Nc2cc(O)cc(O)c2C(=O)N2CC[C@@H](F)C2)cn1`, the growth was determined as 1.07.

`COc1cccc(Oc2ccc(C(F)(F)F)cc2C(=O)O)c1OCc1ccccc1`: the growth turned out to be 1.08. Next, `COC(=O)C/C=C/[C@H](C)[C@H](NC(=O)C(F)(F)F)c1ccc(Br)cc1`: 0.964; `C=CCN1C(=O)c2[nH]nc(COC)c2C1c1ccccc1` (centres undefined): 0.838; `CCOC(=O)[C@@H]1CCCN(CCc2ccccc2C)C1`: 0.862. In the case of `C=CCOC(=O)C#CCCCNC(=O)OC(C)(C)C`, the growth was 0.97. Next, `COc1ccccc1C#C[C@@H]1C=C[C@H](OC(C)=O)[C@@H](COC(C)=O)O1`: 0.893; `CCc1cc2c(nc1CC)CCCN2S(=O)(=O)c1ccc(C(F)(F)F)cc1`: 0.898. With `COc1cc(OC)c2c(=O)c3c(CC=C(C)C)cc(OC)c(O)c3oc2c1`, the growth was 1.08. With `COC(=O)C1=C(C)N(Cc2ccccc2)C(=S)NC1c1cccc(Cl)c1` (centres undefined) the figure was 0.876; with `COC(=O)C1=C(C)N(Cc2ccc(C(F)(F)F)cc2)C(NCc2ccncc2)=NC1c1ccccc1` (centres undefined), 0.882; with `COC(=O)C1=C(C)N(Cc2ccc(Cl)cc2)C(=S)NC1c1ccc(F)cc1` (centres undefined), 0.98. Next, `COc1cc(OC)c2c(c1)OC(Cc1ccc3ccccc3c1)(c1ccc(Br)cc1)C2=O` (centres undefined): 0.9; `COC[C@@H](O)[C@H]1OCc2oc3ccccc3c2[C@H]1/C=C/c1ccccc1`: 0.835.

As to `COc1cc([C@@H]2[C@@H](C(=O)Nc3ccccc3)[C@H](C(=O)Nc3ccccc3)[C@H]2c2cc(OC)c(OC)c(OC)c2)cc(OC)c1OC`, the growth stood at 0.994.

In the case of `CO[C@@H]1[C@H](O)CC[C@]2(O)CN(c3ccc4[nH]ccc4c3)[C@](C)([C@H](O)CC=C(C)C)[C@@H]12`, the growth was 0.841. Consider `COc1ccc(N2C(=O)c3[nH]nc(CC(C)C)c3C2c2cccc(Cl)c2)cc1` (centres undefined), for which the growth came out at 0.972.

With `CC(=O)C1=C(C)N(CC#C[Si](C)(C)C)C(=O)N(C(C)=O)C1c1ccccc1` (centres undefined), the growth was determined as 0.951. Next, `CC(C)CCCC(C)CCOS(=O)(=O)NC(C)(C)C` (centres undefined): 1.01; `COC(=O)Cc1nnn2c1[C@H](C)[C@H](c1ccccc1Br)OC[C@H](C)C2`: 1.13; `CC(=O)OC[C@H]1O[C@H](C#CCC2CCCC2)C=C[C@@H]1OC(C)=O`: 0.997. With `CC1=NCCN(C)C2=C1C(c1ccccc1)NC2=O` (centres undefined), the growth amounted to 1.08. As for `CC(=O)C1=C(C)N(Cc2ccc(Cl)cc2)C(=S)NC1c1ccc(Br)cc1` (centres undefined), the growth amounted to 0.932. With `COC(=O)c1ccc(N2C(=O)c3[nH]nc(CC(C)C)c3C2C2CCCCC2)cc1` (centres undefined) the figure was 1.12.
